# The supplement of paper PMC8728848
# The list shows a part of the results.
# Assays:
# Experiment in all cases: glycan array binding signal (z-score within array); higher = stronger binding
# Details in all cases: glycan notation: IUPAC condensed, linker removed
# [1] = target: Gal(b1-4)GlcNAc(b1-3)Gal(b1-4)GlcNAc(b1-2)[Gal(b1-4)GlcNAc(b1-3)Gal(b1-4)GlcNAc(b1-6)]Man(a1-6)[Gal(b1-4)GlcNAc(b1-3)Gal(b1-4)GlcNAc(b1-2)Man(a1-3)]Man(b1-4)GlcNAc(b1-4)[Fuc(a1-6)]GlcNAc
# In short: (§1)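 Glycan array data came from 3228 arrays in the Consortium for Functional Glycomics database, and only arrays with an available protein sequence were kept. Glycan names were put into IUPAC-condensed notation, and columns mapping to the same glycan were averaged. The binding signal is a within-array Z-score, averaged across arrays of one protein sequence run at different concentrations or buffers and across linkers. A negative Z-score can be read as non-binding.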
# [2] = target: Gal(b1-4)GlcNAc(b1-3)Gal(b1-4)GlcNAc(b1-3)Gal(b1-4)GlcNAc
# In short: as §1
# [3] = target: Gal(b1-4)GlcNAc(b1-3)Gal(b1-4)GlcNAc(b1-3)Gal(b1-4)GlcNAc(b1-2)Man(a1-3)[Gal(b1-4)GlcNAc(b1-3)Gal(b1-4)GlcNAc(b1-3)Gal(b1-4)GlcNAc(b1-2)Man(a1-6)]Man(b1-4)GlcNAc(b1-4)GlcNAc
# In short: as §1
# [4] = target: Gal(b1-4)GlcNAc(b1-3)Gal(b1-4)GlcNAc(b1-3)Gal(b1-4)GlcNAc(b1-2)Man(a1-3)[Gal(b1-4)GlcNAc(b1-3)Gal(b1-4)GlcNAc(b1-3)Gal(b1-4)GlcNAc(b1-2)Man(a1-6)]Man(b1-4)GlcNAc(b1-4)[Fuc(a1-6)]GlcNAc
# In short: as §1
# [5] = target: Gal(b1-4)GlcNAc(b1-3)Gal(b1-4)GlcNAc(b1-3)Gal(b1-4)GlcNAc(b1-2)[Gal(b1-4)GlcNAc(b1-3)Gal(b1-4)GlcNAc(b1-3)Gal(b1-4)GlcNAc(b1-6)]Man(a1-6)[Gal(b1-4)GlcNAc(b1-3)Gal(b1-4)GlcNAc(b1-3)Gal(b1-4)GlcNAc(b1-2)Man(a1-3)]Man(b1-4)GlcNAc(b1-4)[Fuc(a1-6)]GlcNAc
# In short: as §1
# [6] = target: Gal(b1-4)GlcNAc(b1-3)Gal(b1-4)GlcNAc(b1-3)Gal(b1-4)GlcNAc(b1-3)Gal(b1-4)GlcNAc(b1-2)Man(a1-3)[Gal(b1-4)GlcNAc(b1-3)Gal(b1-4)GlcNAc(b1-3)Gal(b1-4)GlcNAc(b1-3)Gal(b1-4)GlcNAc(b1-2)Man(a1-6)]Man(b1-4)GlcNAc(b1-4)GlcNAc
# In short: as §1
# [7] = target: Gal(b1-4)GlcNAc(b1-3)Gal(b1-4)GlcNAc(b1-3)Gal(b1-4)GlcNAc(b1-3)Gal(b1-4)GlcNAc(b1-2)Man(a1-3)[Gal(b1-4)GlcNAc(b1-3)Gal(b1-4)GlcNAc(b1-3)Gal(b1-4)GlcNAc(b1-3)Gal(b1-4)GlcNAc(b1-2)Man(a1-6)]Man(b1-4)GlcNAc(b1-4)[Fuc(a1-6)]GlcNAc
# In short: as §1
# [8] = target: Gal(b1-4)GlcNAc(b1-3)Gal(b1-4)GlcNAc(b1-3)Gal(b1-4)GlcNAc(b1-3)Gal(b1-4)GlcNAc(b1-2)[Gal(b1-4)GlcNAc(b1-3)Gal(b1-4)GlcNAc(b1-3)Gal(b1-4)GlcNAc(b1-3)Gal(b1-4)GlcNAc(b1-6)]Man(a1-6)[Gal(b1-4)GlcNAc(b1-3)Gal(b1-4)GlcNAc(b1-3)Gal(b1-4)GlcNAc(b1-3)Gal(b1-4)GlcNAc(b1-2)Man(a1-3)]Man(b1-4)GlcNAc(b1-4)[Fuc(a1-6)]GlcNAc
# In short: as §1
# [9] = target: Gal(b1-4)GlcNAc(b1-3)Gal(b1-4)GlcNAc(b1-3)Gal(b1-4)GlcNAc(b1-3)Gal(b1-4)GlcNAc(b1-3)Gal(b1-4)GlcNAc(b1-2)Man(a1-3)[Gal(b1-4)GlcNAc(b1-3)Gal(b1-4)GlcNAc(b1-3)Gal(b1-4)GlcNAc(b1-3)Gal(b1-4)GlcNAc(b1-3)Gal(b1-4)GlcNAc(b1-2)Man(a1-6)]Man(b1-4)GlcNAc(b1-4)GlcNAc
# In short: as §1
# [10] = target: Gal(b1-4)GlcNAc(b1-3)Gal(b1-4)GlcNAc(b1-3)Gal(b1-4)GlcNAc(b1-3)Gal(b1-4)GlcNAc(b1-3)Gal(b1-4)GlcNAc(b1-2)Man(a1-3)[Gal(b1-4)GlcNAc(b1-3)Gal(b1-4)GlcNAc(b1-3)Gal(b1-4)GlcNAc(b1-3)Gal(b1-4)GlcNAc(b1-3)Gal(b1-4)GlcNAc(b1-2)Man(a1-6)]Man(b1-4)GlcNAc(b1-4)[Fuc(a1-6)]GlcNAc
# In short: as §1
# [11] = target: Gal(b1-4)GlcNAc(b1-3)Gal(b1-4)GlcNAc(b1-3)Gal(b1-4)GlcNAc(b1-3)Gal(b1-4)GlcNAc(b1-3)Gal(b1-4)GlcNAc(b1-2)[Gal(b1-4)GlcNAc(b1-3)Gal(b1-4)GlcNAc(b1-3)Gal(b1-4)GlcNAc(b1-3)Gal(b1-4)GlcNAc(b1-3)Gal(b1-4)GlcNAc(b1-6)]Man(a1-6)[Gal(b1-4)GlcNAc(b1-3)Gal(b1-4)GlcNAc(b1-3)Gal(b1-4)GlcNAc(b1-3)Gal(b1-4)GlcNAc(b1-3)Gal(b1-4)GlcNAc(b1-2)Man(a1-3)]Man(b1-4)GlcNAc(b1-4)[Fuc(a1-6)]GlcNAc
# In short: as §1
# [12] = target: Gal(b1-4)GlcNAc(b1-3)Gal(b1-4)GlcNAc(b1-3)Gal(b1-4)GlcNAc(b1-3)Gal(b1-4)GlcNAc(b1-3)Gal(b1-4)GlcNAc(b1-3)Gal(b1-4)GlcNAc(b1-2)Man(a1-3)[Gal(b1-4)GlcNAc(b1-3)Gal(b1-4)GlcNAc(b1-3)Gal(b1-4)GlcNAc(b1-3)Gal(b1-4)GlcNAc(b1-3)Gal(b1-4)GlcNAc(b1-3)Gal(b1-4)GlcNAc(b1-2)Man(a1-6)]Man(b1-4)GlcNAc(b1-4)GlcNAc
# In short: as §1
# [13] = target: Gal(b1-4)GlcNAc(b1-3)Gal(b1-4)GlcNAc(b1-3)GalNAc
# In short: as §1
# [14] = target: Gal(b1-4)GlcNAc(b1-3)Gal(b1-4)GlcNAc(b1-3)[Gal(b1-4)GlcNAc(b1-3)Gal(b1-4)GlcNAc(b1-6)]GalNAc
# In short: as §1
# [15] = target: Gal(b1-4)GlcNAc(b1-3)Gal(b1-4)GlcNAc(b1-6)[Gal(b1-3)]GalNAc
# In short: as §1
# [16] = target: Gal(b1-4)GlcNAc(b1-3)Gal(b1-4)[Fuc(a1-3)]GlcNAc(b1-3)Gal(b1-4)[Fuc(a1-3)]GlcNAc
# In short: as §1
# [17] = target: Gal(b1-4)GlcNAc(b1-3)GalNAc
# In short: as §1
# [18] = target: Gal(b1-4)GlcNAc(b1-3)[Fuc(a1-3)GlcNAc(b1-6)]Gal(b1-4)Glc
# In short: as §1
# [19] = target: Gal(b1-4)GlcNAc(b1-3)[Gal(b1-4)GlcNAc(b1-6)]Gal(b1-4)GlcNAc
# In short: as §1
# [20] = target: Gal(b1-4)GlcNAc(b1-3)[GlcNAc(b1-6)]Gal(b1-4)GlcNAc
# In short: as §1
# [21] = target: Gal(b1-4)GlcNAc(b1-6)Gal(b1-4)GlcNAc
# In short: as §1
# [22] = target: Gal(b1-4)GlcNAc(b1-6)GalNAc
# In short: as §1
# [23] = target: Gal(b1-4)GlcNAc(b1-6)[Gal(b1-3)]GalNAc
# In short: as §1
# [24] = target: Gal(b1-4)GlcNAc(b1-6)[Gal(b1-4)GlcNAc(b1-3)]GalNAc
# In short: as §1
# Gal(b1-4)GlcNAc6P = target: Gal(b1-4)GlcNAc6P
# In short: as §1
# Gal(b1-6)Gal = target: Gal(b1-6)Gal
# In short: as §1
# Gal3S(b1-3)GalNAc = target: Gal3S(b1-3)GalNAc
# In short: as §1
# Gal3S(b1-3)GlcNAc = target: Gal3S(b1-3)GlcNAc
# In short: as §1
# [25] = target: Gal3S(b1-3)[Fuc(a1-4)]GlcNAc
# In short: as §1
# Gal3S(b1-4)Glc = target: Gal3S(b1-4)Glc
# In short: as §1
# Gal3S(b1-4)Glc6S = target: Gal3S(b1-4)Glc6S
# In short: as §1
# Gal3S(b1-4)GlcNAc = target: Gal3S(b1-4)GlcNAc
# In short: as §1
# [26] = target: Gal3S(b1-4)[Fuc(a1-3)]Glc6S
# In short: as §1
# [27] = target: Gal3S(b1-4)[Fuc(a1-3)]GlcNAc
# In short: as §1
# [28] = target: Gal3S(b1-4)[Fuc(a1-3)]GlcNAc6S
# In short: as §1
# Gal3S4S(b1-4)GlcNAc = target: Gal3S4S(b1-4)GlcNAc
# In short: as §1
# Gal3S6S(b1-4)GlcNAc = target: Gal3S6S(b1-4)GlcNAc
# In short: as §1
# Gal3S6S(b1-4)GlcNAc6S = target: Gal3S6S(b1-4)GlcNAc6S
# In short: as §1
# Gal4S(b1-4)GlcNAc = target: Gal4S(b1-4)GlcNAc
# In short: as §1
# Gal4S6S(b1-4)GlcNAc = target: Gal4S6S(b1-4)GlcNAc
# In short: as §1
# Gal6P(b1-4)GlcNAc = target: Gal6P(b1-4)GlcNAc
# In short: as §1
# Gal6S(b1-3)GlcNAc = target: Gal6S(b1-3)GlcNAc
# In short: as §1
# Gal6S(b1-3)GlcNAc6S = target: Gal6S(b1-3)GlcNAc6S
# In short: as §1
# Gal6S(b1-4)Glc = target: Gal6S(b1-4)Glc
# In short: as §1
# Gal6S(b1-4)Glc6S = target: Gal6S(b1-4)Glc6S
# In short: as §1
binder,measurement,setting,value
F17-L (Escherichia coli) (protein) GPDDYVPSQIAVNTSTLPGVVIGPADAHTYPRVIGELAGTSNQYVFNGGAIALMRGKFTPALPKIGSITYTFHQGNSRDSSDFDIYDIGVSGLGIIIGMAGYWPATPLVPINSSGIYIDPVGANTNPNTYNGATASFGARLFVAFVATGRLPNGYITIPTRQLGTILLEAKRTSLNNKGLTAPVMLNGGRIQVQSQTHHHHHH,glycan array binding signal (z-score),[1],-0.077
same,glycan array binding signal (z-score),[2],-0.087
same,glycan array binding signal (z-score),[3],-0.059
same,glycan array binding signal (z-score),[4],0.05
same,glycan array binding signal (z-score),[5],-0.173
same,glycan array binding signal (z-score),[6],-0.146
same,glycan array binding signal (z-score),[7],-0.057
same,glycan array binding signal (z-score),[8],-0.147
same,glycan array binding signal (z-score),[9],-0.093
same,glycan array binding signal (z-score),[10],-0.099
same,glycan array binding signal (z-score),[11],0.013
same,glycan array binding signal (z-score),[12],-0.152
same,glycan array binding signal (z-score),[13],-0.141
same,glycan array binding signal (z-score),[14],-0.06
same,glycan array binding signal (z-score),[15],-0.113
same,glycan array binding signal (z-score),[16],0.011
same,glycan array binding signal (z-score),[17],-0.12
same,glycan array binding signal (z-score),[18],-0.166
same,glycan array binding signal (z-score),[19],0.019
same,glycan array binding signal (z-score),[20],-0.132
same,glycan array binding signal (z-score),[21],-0.156
same,glycan array binding signal (z-score),[22],-0.078
same,glycan array binding signal (z-score),[23],-0.095
same,glycan array binding signal (z-score),[24],-0.158
same,glycan array binding signal (z-score),Gal(b1-4)GlcNAc6P,-0.084
same,glycan array binding signal (z-score),Gal(b1-6)Gal,-0.146
same,glycan array binding signal (z-score),Gal3S(b1-3)GalNAc,-0.028
same,glycan array binding signal (z-score),Gal3S(b1-3)GlcNAc,-0.094
same,glycan array binding signal (z-score),[25],-0.036
same,glycan array binding signal (z-score),Gal3S(b1-4)Glc,-0.156
same,glycan array binding signal (z-score),Gal3S(b1-4)Glc6S,-0.109
same,glycan array binding signal (z-score),Gal3S(b1-4)GlcNAc,-0.128
same,glycan array binding signal (z-score),[26],0.13
same,glycan array binding signal (z-score),[27],-0.048
same,glycan array binding signal (z-score),[28],-0.061
same,glycan array binding signal (z-score),Gal3S4S(b1-4)GlcNAc,-0.039
same,glycan array binding signal (z-score),Gal3S6S(b1-4)GlcNAc,-0.107
same,glycan array binding signal (z-score),Gal3S6S(b1-4)GlcNAc6S,0.102
same,glycan array binding signal (z-score),Gal4S(b1-4)GlcNAc,-0.113
same,glycan array binding signal (z-score),Gal4S6S(b1-4)GlcNAc,-0.103
same,glycan array binding signal (z-score),Gal6P(b1-4)GlcNAc,-0.111
same,glycan array binding signal (z-score),Gal6S(b1-3)GlcNAc,-0.116
same,glycan array binding signal (z-score),Gal6S(b1-3)GlcNAc6S,-0.114
same,glycan array binding signal (z-score),Gal6S(b1-4)Glc,-0.07
same,glycan array binding signal (z-score),Gal6S(b1-4)Glc6S,-0.033
